Measured values: the supplement of paper PMC9446081
About 220 (0.56%) of roughly 39,000 compounds showed activity. This is one part of the list.

tested on: Escherichia coli K-12 BW25113; assay: relative growth (OD600 normalised to plate interquartile mean) (fraction); higher = less growth inhibition, active = 0.2 or less; settings: 50 µM; LB; incubation time: overnight (16-24 h)
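Further: static incubation at 37 °C against the wild-type strain, values averaged over two biological replicates.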

Structure (SMILES)	relative growth
C[C@@H]1CCCCO[C@H](CN(C)S(=O)(=O)c2ccc(F)cc2)[C@@H](C)CN([C@@H](C)CO)C(=O)c2cc(NC(=O)c3ccccc3)ccc2O1	inactive: 1.04
C[C@@H]1CCCCO[C@@H](CN(C)S(=O)(=O)c2ccc(Cl)cc2)[C@@H](C)CN([C@H](C)CO)C(=O)c2cc(NS(=O)(=O)c3ccccc3)ccc2O1	inactive: 0.998
C[C@@H]1CN([C@@H](C)CO)C(=O)CCCn2nncc2CO[C@H]1CN(C)S(=O)(=O)c1cn(C)cn1	inactive: 1.01
C[C@@H]1CN([C@H](C)CO)C(=O)Cc2cc(NC(=O)Nc3ccc4c(c3)OCO4)ccc2O[C@H]1CN(C)S(=O)(=O)c1cn(C)cn1	inactive: 0.982
COc1ccc(NC(=O)Nc2ccc3c(c2)C(=O)N([C@@H](C)CO)C[C@@H](C)[C@@H](CN(C)C(=O)Nc2ccc(OC)cc2)OCCCC[C@@H](C)O3)cc1	inactive: 1.02
NCc1nnnn1-c1ccccc1	inactive: 0.977
C[C@H]1CCCCO[C@@H](CN(C)C(=O)Nc2ccccc2)[C@@H](C)CN([C@@H](C)CO)C(=O)c2cc(NC(=O)Nc3cccc4ccccc34)ccc2O1	inactive: 1.02
C[C@H]1CN([C@@H](C)CO)C(=O)c2cc(NC(=O)Nc3ccc(C(F)(F)F)cc3)ccc2O[C@H]1CN(C)Cc1ccc(C(F)(F)F)cc1	inactive: 1.01
C[C@H](CO)N1C[C@H](C)[C@@H](CN(C)S(C)(=O)=O)Oc2ccc(NS(=O)(=O)c3ccc(F)cc3)cc2CC1=O	inactive: 0.981
Nc1nonc1N1CCCCC1	inactive: 1.05
C[C@H]1CN([C@@H](C)CO)C(=O)c2cc(NC(=O)Cc3cn(C)c4ccccc34)ccc2O[C@@H]1CN(C)S(C)(=O)=O	inactive: 0.998
COc1ccc(S(=O)(=O)N(C)C[C@@H]2Oc3ccc(NS(=O)(=O)c4ccc(C)cc4)cc3CC(=O)N([C@H](C)CO)C[C@H]2C)cc1	inactive: 0.913
Cc1noc(C)c1NC(=O)Nc1ccc2c(c1)C(=O)N([C@H](C)CO)C[C@@H](C)[C@H](CN(C)Cc1ccc(-c3ccccc3)cc1)O2	inactive: 0.914
C[C@H](CO)N1C[C@H](C)[C@@H](CN(C)S(=O)(=O)c2cccs2)Oc2ccc(NC(=O)CCCN(C)C)cc2CC1=O	inactive: 1.01
C[C@@H]1CN([C@@H](C)CO)C(=O)c2cc(NC(=O)Nc3ccc(C(F)(F)F)cc3)ccc2O[C@@H](C)CCCCO[C@H]1CN(C)Cc1ccc(C(=O)O)cc1	inactive: 0.947
C=C(C)C1CC=C(C(=O)O)CC1 (stereo not drawn)	inactive: 0.773
C[C@@H]1CN([C@@H](C)CO)C(=O)c2cccc(NS(=O)(=O)c3cccs3)c2O[C@H]1CN(C)S(=O)(=O)c1cn(C)cn1	inactive: 1.03
COC(=O)C1=C(C)NC(C)=C(C(=O)OCCCN2CCC(c3ccccc3)(c3ccccc3)CC2)[C@@H]1c1cccc([N+](=O)[O-])c1	inactive: 0.972
C[C@H](CO)N1C[C@H](C)[C@H](CN(C)S(=O)(=O)c2ccccc2)OCCCC[C@H](C)Oc2ccc(NS(=O)(=O)c3ccc(Cl)cc3)cc2C1=O	inactive: 0.975
CNC[C@@H]1OCCCC[C@@H](C)Oc2ccc(NC(=O)CCCN(C)C)cc2C(=O)N([C@@H](C)CO)C[C@H]1C	inactive: 0.963

Structure (SMILES)	relative growth
C[C@@H]1CN([C@H](C)CO)C(=O)c2cc(NC(=O)Nc3cccc4ccccc34)ccc2O[C@H]1CN(C)S(=O)(=O)c1ccc(F)cc1	inactive: 1.06
C[C@H]1CN([C@@H](C)CO)C(=O)Cc2cc(NS(=O)(=O)c3ccc(Cl)cc3)ccc2O[C@@H]1CN(C)S(=O)(=O)c1cn(C)cn1	inactive: 0.999
C[C@H](CO)N1C[C@H](C)[C@H](CN(C)C(=O)Nc2cccc3ccccc23)Oc2c(NC(=O)c3nc4ccccc4s3)cccc2C1=O	inactive: 0.994
COc1cccc(-c2ccc3c(c2)O[C@@H](CN(C)C(=O)C2CCOCC2)[C@@H](C)CN([C@@H](C)CO)S3(=O)=O)c1	inactive: 1
CS(=O)(=O)N1CCN(Cc2cc3nc(-c4cccc5n[nH]cc45)nc(N4CCOCC4)c3s2)CC1	inactive: 1.03
C[C@H](CO)N1C[C@H](C)[C@H](CN(C)S(=O)(=O)c2ccccc2F)Oc2cc(C#Cc3cccc(F)c3)ccc2S1(=O)=O	inactive: 1.04
C=CCN1C(=O)[C@@]2(O[C@@H](CCn3cc([C@H](O)c4ccccc4)nn3)[C@H]([Si](C)(C)c3ccc(OC)cc3)[C@H]2C)c2cc(N3CCOC3=O)ccc21	inactive: 0.993
C[C@@H]1CN([C@H](C)CO)C(=O)c2cc(NC(=O)Nc3ccccc3)ccc2O[C@@H](C)CCCCO[C@H]1CN(C)Cc1ccc(Cl)c(Cl)c1	inactive: 1.02
C[C@@H]1CCCCO[C@H](CN(C)Cc2ccc(Cl)c(Cl)c2)[C@H](C)CN([C@@H](C)CO)C(=O)c2cc(NC(=O)C3CCCCC3)ccc2O1	inactive: 0.982
C[C@H](CO)N1C[C@H](C)[C@@H](CN(C)C(=O)C2CCCCC2)Oc2cc(C#CCN(C)C)ccc2S1(=O)=O	inactive: 1
COc1ccc(NC(=O)Nc2ccc3c(c2)C(=O)N([C@H](C)CO)C[C@H](C)[C@@H](CN(C)C(=O)Nc2c(C)noc2C)OCCCC[C@@H](C)O3)cc1	inactive: 1.01
COc1ccc(CN(C)C[C@H]2Oc3ccc(NC(=O)CCCCCC(=O)Nc4ccccc4N)cc3CC(=O)N([C@@H](C)CO)C[C@H]2C)cc1	inactive: 1
C[C@@H]1CCCCO[C@H](CN(C)Cc2ccc(C(F)(F)F)cc2)[C@H](C)CN([C@H](C)CO)C(=O)c2cc(NS(=O)(=O)c3ccc(Cl)cc3)ccc2O1	inactive: 1.07
CC(C)NC(=O)N(C)C[C@H]1OCCCC[C@@H](C)Oc2ccc(NC(=O)C3CCCCC3)cc2C(=O)N([C@@H](C)CO)C[C@H]1C	inactive: 0.936
C[C@@H]1CCCCO[C@@H](CN(C)S(=O)(=O)c2ccccc2)[C@@H](C)CN([C@@H](C)CO)C(=O)c2cc(NC(=O)NC3CCCCC3)ccc2O1	inactive: 0.995
C[C@@H]1CN([C@H](C)CO)C(=O)Cc2cc(NS(=O)(=O)c3cccs3)ccc2O[C@@H]1CN(C)Cc1ccncc1	inactive: 0.975
NCCCCN	inactive: 0.989
C[C@H]1CCCCO[C@H](CN(C)Cc2ccc(C(=O)O)cc2)[C@@H](C)CN([C@@H](C)CO)C(=O)c2cc(NC(=O)NC3CCCCC3)ccc2O1	inactive: 1.02
Cc1noc(C)c1NC(=O)N(C)C[C@@H]1Oc2ccc(NC(=O)Cn3cnnn3)cc2CC(=O)N([C@H](C)CO)C[C@H]1C	inactive: 0.861
CC(C)c1nc(CN(C)C(=O)N[C@@H](CCN2CCOCC2)C(=O)N[C@H](CC[C@H](Cc2ccccc2)NC(=O)OCc2cncs2)Cc2ccccc2)cs1	inactive: 1.01

Structure (SMILES)	relative growth
C[C@@H]1CN([C@H](C)CO)C(=O)c2cc(NC(=O)NC3CCCCC3)ccc2O[C@@H](C)CCCCO[C@@H]1CN(C)Cc1ccc(C(F)(F)F)cc1	inactive: 0.968
O=C(O)[C@@H]1CCCNC1	inactive: 1.01
CNC[C@H]1Oc2ccc(NS(=O)(=O)c3cn(C)cn3)cc2CC(=O)N([C@H](C)CO)C[C@@H]1C	inactive: 0.985
COc1ccc(S(=O)(=O)N(C)C[C@H]2Oc3c(NC(=O)c4cc(C)nn4C)cccc3C(=O)N([C@H](C)CO)C[C@H]2C)cc1	inactive: 1.01
CNC(=O)c1cccc(S(N)(=O)=O)c1	inactive: 1.04
C[C@@H]1CCCCO[C@@H](CN(C)Cc2ccc(C(F)(F)F)cc2)[C@@H](C)CN([C@@H](C)CO)C(=O)c2cc(NS(=O)(=O)c3cccs3)ccc2O1	inactive: 1.03
O=C(C[C@H]1C[C@H]2c3cc(NC(=O)c4ccc5c(c4)OCO5)ccc3O[C@H]2[C@H](CO)O1)NCc1ccc(Oc2ccccc2)cc1	inactive: 1
C[C@H]1CN([C@@H](C)CO)S(=O)(=O)c2ccc(-c3ccccc3F)cc2O[C@H]1CN(C)Cc1cncnc1	inactive: 1.01
C[C@H]1CN([C@@H](C)CO)C(=O)Cc2cc(NC(=O)Cc3ccccc3)ccc2O[C@@H]1CN(C)Cc1ccc(-c2ccccc2)cc1	inactive: 0.982
COc1ccc(S(=O)(=O)Nc2cccc3c2O[C@@H](CN(C)C(=O)NC(C)C)[C@@H](C)CN([C@H](C)CO)C3=O)cc1	inactive: 0.991
CC(=O)NC1C(O)CC(O)(C(=O)O)OC1C(O)C(O)CO (stereo not drawn)	inactive: 1.21
CN(C)CCCNC(=O)C[C@H]1C=C[C@H](NS(=O)(=O)c2ccccc2)[C@@H](CO)O1	inactive: 0.954
C[C@H](CO)N1C[C@H](C)[C@H](CN(C)S(=O)(=O)c2cccs2)Oc2ccc(NC(=O)CCN3CCOCC3)cc2CC1=O	inactive: 0.981
CC(C)(O)[C@H]1CC[C@@](C)([C@H]2[C@@H](O)C[C@@]3(C)[C@@H]4C[C@H](O[C@@H]5O[C@H](CO)[C@@H](O)[C@H](O)[C@H]5O)[C@H]5C(C)(C)[C@@H](O[C@@H]6OC[C@@H](O)[C@H](O)[C@H]6O)CC[C@@]56C[C@@]46CC[C@]23C)O1	inactive: 1.04
COc1ccc2c3c([nH]c2c1)[C@@H](CO)N(C[C@]13CN(CC2CCOCC2)C1)S(=O)(=O)c1cn(cn1)C	inactive: 0.988
COc1ncccc1C#N	inactive: 1.01
CC(C)[C@@H]1CC[C@@H](C)CC1=O	inactive: 1
C[C@@H]1CCCCO[C@H](CN(C)Cc2ccc3c(c2)OCO3)[C@@H](C)CN([C@@H](C)CO)C(=O)c2cc(NS(=O)(=O)c3cccs3)ccc2O1	inactive: 0.995
